In ChEMBL document CHEMBL3822376, “Potent anticholinesterasic and neuroprotective pyranotacrines as inhibitors of beta-amyloid aggregation, oxidative stress and tau-phosphorylation for Alzheimer's disease” (Eur J Med Chem, 2016):

Key:
[1] = tested on: COC(=O)C1=C(C)Oc2nc3c(c(N)c2C1c1cc2ccc(OC)cc2nc1Cl)CCCC3; conditions: Electrophorus electricus; 0.01 uM
[2] = tested on: COC(=O)C1=C(C)Oc2nc3c(c(N)c2C1c1cc2ccc(OC)cc2nc1Cl)CCCC3; conditions: Electrophorus electricus; 0.05 uM
[3] = tested on: COC(=O)C1=C(C)Oc2nc3c(c(N)c2C1c1cc2ccc(OC)cc2nc1Cl)CCCC3; conditions: Electrophorus electricus; 0.1 uM
[4] = tested on: COC(=O)C1=C(C)Oc2nc3c(c(N)c2C1c1cc2ccc(OC)cc2nc1Cl)CCCC3; conditions: Electrophorus electricus; 0.5 uM
[5] = tested on: COC(=O)C1=C(C)Oc2nc3c(c(N)c2C1c1cc2ccc(OC)cc2nc1Cl)CCCC3; conditions: Electrophorus electricus; 1 uM
[6] = tested on: COC(=O)C1=C(C)Oc2nc3c(c(N)c2C1c1cc2ccc(OC)cc2nc1Cl)CCCC3; conditions: Electrophorus electricus; 5 uM

Q: For “Acetylcholinesterase (Electrophorus electricus) (no sequence given)”, which Vmax [1] is on record?
A: The Vmax was 0.085 deltaOD/min.

Q: And the Vmax [2]?
A: The Vmax was 0.084 deltaOD/min.

Q: What about the Vmax [3] of the same substance?
A: The Vmax was 0.083 deltaOD/min.

Q: And the Vmax [4]?
A: The Vmax was 0.059 deltaOD/min.

Q: What about the Vmax [5] of the same substance?
A: Its Vmax is 0.043 deltaOD/min.

Q: And the Vmax [6]?
A: Its Vmax is 0.024 deltaOD/min.
